Source: US20170088618A1 (CELGENE, published 2017)

Tests used:
[1] = biological target: T1, human PD-1 expressed on cells (human, UniProt Q15116 partial chain); experiment: flow cytometry on CHO cells expressing human PD-1; detection with anti-human IgG Fc (PE GeoMFI); axis 'Primary Ab conc (nM)' carries log values -3 to 3
T1 construct: also called human PD-1-CHO cells; CHO-hPD-1

[2] = biological target: T2, cynomolgus PD-1 expressed on cells (cynomolgus, UniProt B0LAJ3 25-288); experiment: flow cytometry on CHO cells expressing cynomolgus PD-1; detection with anti-human IgG Fc (PE GeoMFI); axis 'Primary Ab conc (nM)' carries log values -3 to 3
T2 construct: also called cynomolgus PD-1 on CHO cells; PD-1 on cynomolgus T cells
T2 sequence (B0LAJ3 entry or part of it limits assumed): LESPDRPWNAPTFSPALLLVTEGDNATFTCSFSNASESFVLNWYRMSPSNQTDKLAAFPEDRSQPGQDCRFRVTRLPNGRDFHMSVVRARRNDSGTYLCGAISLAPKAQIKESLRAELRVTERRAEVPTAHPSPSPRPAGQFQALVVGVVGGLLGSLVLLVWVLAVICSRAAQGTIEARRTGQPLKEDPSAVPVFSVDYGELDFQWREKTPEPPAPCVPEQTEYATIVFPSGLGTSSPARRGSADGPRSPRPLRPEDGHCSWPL

T1 sequence (Q15116 25-198 limits assumed): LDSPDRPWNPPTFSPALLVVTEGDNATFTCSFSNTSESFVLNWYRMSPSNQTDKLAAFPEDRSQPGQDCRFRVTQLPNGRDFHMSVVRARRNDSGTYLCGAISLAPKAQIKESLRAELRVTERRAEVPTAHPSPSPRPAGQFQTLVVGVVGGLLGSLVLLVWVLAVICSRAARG

B1: PD1AB-6-IgG1 (antibody)
heavy: EVQLVQSGAEVKKPGATVKISCKASGFNIKDTYMHWVQQAPGKGLEWMGRIDPANGDRKYDPKFQGRVTITADTSTDTAYMELSSLRSEDTAVYYCARSGPVYYYGSSYVMDYWGQGTTVTVSS[letters of human IgG1 constant region left out]
light: DIVMTQSPDSLAVSLGERATINCKSGQSVLYSSNQKNFLAWYQQKPGQPPKLLIYWASTRESGVPDRFSGSGSGTDFTLTISSLQAEDVAVYYCHQYLYSWTFGQGTKLEIKRTVAAPSVFIFPPSDEQLKSGTASVVCLLNNFYPREAKVQWKVDNALQSGNSQESVTEQDSKDSTYSLSSTLTLSKADYEKHKVYACEVTHQGLSSPVTKSFNRGEC
notes: also called IgG1_PD1AB-6; IgG1-PD1AB-6
Q: B1 was tested. Which LogEC50 [1] did it give?
A: 0.431 log10(nM)

Q: And the LogEC50 [2]?
A: 0.806 log10(nM)
